Source: ChEMBL document CHEMBL4888484, “Replenishing the malaria drug discovery pipeline: Screening and hit evaluation of the MMV Hit Generation Library 1 (HGL1) against asexual blood stage Plasmodium falciparum ,using a nano luciferase reporter read-out” (2022)
The whole screen tested about 150,000 compounds, of which about 540 (0.36%) showed an effect of 50% or more. The list shows a part of the results. Where a SMILES comes first, the peptide text is derived from it. The star is where a group is joined. Cbz = O=C(OCc1ccccc1)*

The molecules below were run on Plasmodium falciparum (assay: Primary screen in NF54 nanoGlo assay, in single point, at 2uM, 72h; a lower Z score goes with more inhibition). Settings: timepoint 72 hour.
Assay type: functional, Erythrocyte

SMILES	% Inhibition [%]	Z score
Cc1ccc(C(=O)Nc2ccc3c(c2)cc(C(=O)Nc2ccccc2)n3Cc2ccc(C(C)(C)C)cc2)cc1C	8	-0.85
CCCCc1nc(C)cc(NCCNC(=O)c2cncn2C)n1	-31	2.74
CC1CC(C)CN(C(=O)Cc2ccc(F)cc2)C1 (configuration not stated)	4	-0.55
CN(Cc1ccccc1)C(=O)C[C@@H]1CCNC[C@@H]1Cc1cc(-c2ccc(C(C)(C)C)cc2)on1	31	-3.48
Cc1c(CC(=O)NCC(N)=O)c2c(n1Cc1ccccc1)CCCC2=O	1	-0.27
O=C(NCC[C@H]1CCC(F)(F)C1)c1cnn2c1OCCC2	6	-1.11
Cc1cc(C(=O)N2CCN(c3ccccc3)CC2)c2c(C)nn(-c3ccccc3Cl)c2n1	-7	0.92
CC(NC(=O)CN1C(C(=O)O)CC2CCCCC21)c1ccc(F)cc1 (configuration not stated)	-5	0.6
CCc1ccccc1S(=O)(=O)N[C@@H]1CS(=O)(=O)C[C@H]1O	-5	0.63
CNC(=O)c1ccc(CN(C)C2CCCCC2O)o1 (configuration not stated)	2	-0.21
CN(Cc1c[nH]nc1-c1c(F)cccc1F)CC1(O)CCOCC1	-17	1.71
CC1CN(CC(=O)NC2(C#N)CCCCC2)CC(C)O1 (configuration not stated)	-3	0.61
COc1cc2c(cc1OC)C1CCCCC1OC2c1cccc(NS(C)(=O)=O)c1 (configuration not stated)	35	-3.96
Cc1cccc(NC(=O)c2cccc(C(=O)Nc3cccc(C)n3)n2)n1	6	-0.88
Cc1n[nH]c(=O)nc1NCCc1c[nH]c2ccccc12	1	-0.16
COCc1nc(Cc2noc([C@H]3CCO[C@@H]3c3cccnc3)n2)cs1	-9	1.66
CN(Cc1ncnn1CC(F)F)C(=O)c1nccc2ccsc12	-7	1.05
Cc1cc(C)c(Cc2noc(C[C@H](C)n3ccnc3)n2)c(C)c1	-20	2.65
O=C(NCc1nc(C(F)(F)F)no1)N1CCC(c2ccon2)CC1	-18	2.35
CC(C)c1nn(C)c(N(C)C)c1CN[C@H](c1nccn1C)C(C)C	34	-3.86
Cc1nc(CNC(=O)c2ccccc2OC(C)C)c2n1CCCC2	-5	0.61

SMILES	% Inhibition [%]	Z score
Cc1nc([C@H](C)NC(=O)N2CCC3(C=Cc4ccccc4O3)CC2)cs1	15	-1.91
CCC(=O)Nc1ccc(C)c(NC(=O)N2CCc3ccccc3C(C)(C)C2)c1	15	-1.69
COCC(C)(C)c1noc(-c2cccc3nn[nH]c23)n1	-2	0.35
CC1CCC(N(C(=O)CN2CC[C@@](O)(C(F)(F)F)C2)C2CC2)CC1 (some centres not stated)	-13	2
CCC(C)C(NC(=O)C(C)NC(=O)CNC(=O)OCc1ccccc1)C(N)=O (stereo not drawn) (Cbz-Gly-Ala-Ile-NH2; configuration not given here)	-4	0.71
Cn1cc(C2(c3cn(C)c4ccccc34)CCN(C(=O)[C@H]3CC(=O)N(c4ccc(F)cc4)C3)CC2)c2ccccc21	-8	1.38
CO[C@H]1C[C@@H](O)C12CCN(C(=O)c1cc(-c3cccs3)n(C)n1)CC2	2	-0.33
Cc1cccc(Cn2ncnc2CCc2cn[nH]c2)c1	-3	0.47
CN(Cc1ccn(-c2ccccc2)n1)C[C@H](O)Cn1cccn1	-3	0.49
O=C(c1ccc2nnnn2c1)N1CC[C@@]2(CCCN(CC3CCC3)C2=O)C1	-8	1.58
CN1C(=O)c2cc(NC(=O)c3cccc(S(=O)(=O)N(C)C)c3)ccc2Oc2ncccc21	8	-1.04
N#Cc1ccc(S(=O)(=O)N2CC(O)CC2C2CCCCC2)cc1 (configuration not stated)	-4	0.51
Cc1ccc(-c2cccc(C(=O)NCC3(CN4CCN(C)CC4)CC3)c2)cn1	-9	1.27
Cc1ccccc1CN1CC[C@H](CNC(=O)Cc2c(F)cccc2Cl)C1	2	-0.35
COc1cc(CS(=O)(=O)N2CCN3C[C@@H](F)C[C@H]3C2)sn1	-18	1.93
Cc1ccc(C(=O)N/C(=N/c2cc(Cl)ccc2C)NCc2ccccn2)cc1C	-2	0.16
C[C@]1(c2ccc(Br)cc2)Nc2ccccc2-c2nnnn21	0	-0.06
Cc1oc(-c2ccccc2)nc1Cn1nc2ccccn2c1=O	-6	0.83
CC(C)COc1ccc(C(=O)Nc2cccnc2-n2cccn2)cn1	-6	1.09
CC(=O)NC1(c2noc(C3C4CCCCC43)n2)CCCCC1 (configuration not stated)	2	-0.2
